# Reference: PubChem BioAssay AID624296 (National Center for Advancing Translational Sciences (NCATS), 2012)
# The campaign covered roughly 350,000 compounds. About 9,900 (2.8%) were called active. This list was built around the results that the source calls inconclusive (neither active nor inactive); the mix of calls is not that of the screen. The call rests on the fitted dose curve; in most records, active means well fitted activation curve with a large enough effect; inconclusive means small, poorly fitted or top-dose-only effect; inactive means no such curve, though single readings can be large or run the other way. Potencies of inconclusive entries are left out as doubtful fits.
# Assay: A quantitative high throughput screen for small molecules that induce DNA re-replication in MCF 10a normal breast cells. Further: nearly all actives have a fitted effect of over 50% in size. On activity, positive = re-replication: % of control where 0% means no effect.
# Conditions: MCF 10A DNA re-replication, Hoechst nuclear intensity, 48 h; activity, positive = re-replication: at 46.1 µM (top of the series)
# Potency means the concentration at half of the fitted maximal effect; tags describe the fitted curve by direction and shape.
Structure (SMILES),Potency,"activity, positive = re-replication"
COc1cc(-c2nc(CN3CCCN(C(=O)c4ccco4)CC3)c(C)o2)ccc1F,"inconclusive [activator, single point]",
CN(C)c1cc[n+](CC[n+]2ccc(N(C)C)cc2)cc1,,inactive: -11.5%
CSc1nsc(/C=C/Nc2ccc(O)cc2C)c1C#N,"inconclusive [activator, full curve, poor fit]",
COc1ccc(C(C)C)cc1S(=O)(=O)n1cnc(C)c1,"inconclusive [activator, partial curve, poor fit]",
C=CS(=O)(=O)c1c2cc(OC)ccc2nc2ccc(OC)cc12,"inconclusive [activator, single point]",
O=C(c1nn2c(C(F)(F)F)cc(-c3cccs3)nc2c1Br)N1CCCc2ccccc21,"inconclusive [activator, full curve]",
O=C1C=C(NCc2ccccc2)c2ccccc2C1=O,"inconclusive [activator, single point]",
COCCN1C(=O)N[C@@H](CCc2ccccc2)C(C(C)=O)=C1C,"inconclusive [activator, full curve, poor fit]",
O=C(NCCCN1CCOCC1)c1cc2cc(Br)ccc2oc1=O,"inconclusive [activator, partial curve, poor fit]",
CCOc1ccc2nc(Cl)c(CN(C(=O)c3cnccn3)C3CCCC3)cc2c1,"inconclusive [activator, full curve, poor fit]",
COc1cc(/C=C/C(=O)O)cc(Br)c1O,,inactive: -5.65%
CC(=O)c1cccc(NC(=O)COC(=O)c2cccs2)c1,"inconclusive [activator, partial curve, poor fit]",
Cc1ccccc1C(=O)N1CCN(c2ccc(NC(=O)CSc3ccc(Cl)cc3)cc2)CC1,"inconclusive [activator, partial curve, poor fit]",
COC(=O)c1ccc(C2NC(=O)c3ccccc3O2)cc1 (centres undefined),"inconclusive [activator, partial curve, poor fit]",
Cc1ccc(-c2n[nH]c(=S)n2-c2ccccc2)cc1,,inactive: -0.317%
OCCN1CCN(Cc2cccc(Oc3ccc(Cl)cc3)c2)CC1,"inconclusive [activator, full curve, poor fit]",
O=C(CSc1ccccn1)N/N=C/C=C/c1ccccc1,,inactive: 9.71%
NC(=O)NC(=O)C(c1ccccc1)N1CCN(S(=O)(=O)c2ccc(Br)s2)CC1 (centres undefined),,inactive: 10.6%
CCOC(=O)/C=c1\s/c(=C\c2ccccc2C)c(=O)n1CC(=O)NCc1ccc2c(c1)OCO2,"inconclusive [activator, full curve]",
Cc1cccc(Cn2cc(SCC(=O)Nc3nccs3)c3ccccc32)c1,,inactive: 1.34%
CCCOc1ccc(NC(=O)C2CC(=O)N/C(=N/N=C(\C)CCc3ccc4c(c3)OCO4)S2)cc1 (centres undefined),"inconclusive [activator, single point]",
Cc1cc(Oc2nc3c(C)cccn3c(=O)c2/C=C(\C#N)S(=O)(=O)c2ccc(Cl)cc2)ccc1Cl,"inconclusive [activator, full curve]",

Structure (SMILES),Potency,"activity, positive = re-replication"
CC(C)c1nc2ccc(C(=O)O)cc2[nH]1,active: 11.6 µM,
O=C(Nc1ccc(C(=O)O)cc1)/C(=C\C=C\c1ccccc1)NC(=O)c1ccccc1Br,"inconclusive [activator, single point]",
CC/C(=N\NC(=O)c1ccc(CN(C)S(=O)(=O)c2ccc(C)cc2)cc1)c1ccc(OC(F)F)cc1,,inactive: -2.92%
Cn1nc(-c2ccc(C(=O)NCC3CCCO3)cc2)c2ccccc2c1=O (centres undefined),"inconclusive [activator, partial curve, poor fit]",
O=S(=O)(Nc1cccc2ccccc12)c1ccccc1,"inconclusive [activator, partial curve, poor fit]",
O=C(c1cn(-c2ccccc2)nc1-c1cccs1)N1CCN(c2ccccc2)CC1,active: 6.51 µM,
Cc1cc(NC(=O)COC(=O)c2c(C)c(C)c(C)c(C)c2C)no1,"inconclusive [activator, single point]",
O=S(=O)(N/N=C/c1ccccc1OCc1ccc(Cl)cc1)c1ccccc1,active: 3.26 µM,
C=CC1=C2C=C(C3CC3)N(C3CC3)C=C2C(=O)C(C)(OC(=O)c2ccco2)C1=O (centres undefined),"inconclusive [activator, partial curve, poor fit]",
CCN1CC(c2ccccc2)C(c2ccc(Cl)cc2)=N1 (centres undefined),"inconclusive [activator, partial curve, poor fit]",
CCOC(=O)c1ccc(N2N=C(C)/C(=C/C=C/c3ccco3)C2=O)cc1,"inconclusive [activator, partial curve, poor fit]",
O=C1C=C(c2cccc3c2sc2ccccc23)C[C@@H](c2ccc(F)cc2)C1,,inactive: 23.1%
O=C1N=C(N2CCOCC2)S/C1=C/c1cc2c(cc1[N+](=O)[O-])OCO2,"inconclusive [activator, single point]",
COc1ccc(Nc2nc(N)nc(CCl)n2)cc1,"inconclusive [activator, single point]",
COc1ccc(-c2nn(-c3ccccc3)cc2C(=O)Nc2nccs2)cc1OC,"inconclusive [activator, single point]",
CN(C)c1nc(N)nc(CSc2nnnn2-c2cccc3ccccc23)n1,"inconclusive [activator, partial curve, poor fit]",
COc1ccc(C(=O)NCc2nnc(SCC(=O)Nc3nc4ccccc4s3)o2)cc1,,inactive: 3.91%
COc1cccc(NC(=S)Nc2cccnc2)c1,,inactive: 1.2%
N#Cc1c(N2CCN(C(=O)c3ccccc3)CC2)nc(-c2ccccc2)c2c1CCCC2,"inconclusive [activator, single point]",
Cc1cc(-c2csc3nc[nH]c(=S)c23)cc(C)c1C,"inconclusive [activator, partial curve]",
COc1ccc(-c2nc3c(c(SCC(=O)N4CCOCC4)n2)Cc2c(CO)cnc(C)c2O3)cc1,"inconclusive [activator, single point]",
CC1CCc2c(sc(NC(=O)CSc3nc(N)cc(=O)[nH]3)c2C(N)=O)C1 (centres undefined),"inconclusive [activator, single point]",

Structure (SMILES),Potency,"activity, positive = re-replication"
CCCCc1nc(Cl)c(C#N)c2c1CSC(C)(C)C2,active: 23.1 µM,
COc1cc(Br)c(C2C(C#N)=C(N)Oc3n[nH]c(-c4cccnc4)c32)cc1OC (centres undefined),"inconclusive [activator, single point]",
NC(=O)c1cccc(C(N)=O)n1,"inconclusive [activator, partial curve, poor fit]",
COc1ccc(/C(O)=C/C(=O)C(=O)Nc2c(C)n(C)n(-c3ccccc3)c2=O)cc1,"inconclusive [activator, partial curve]",
O=c1nc(SCc2ccc(Cl)cc2)nc(-c2ccccc2)[nH]1,"inconclusive [activator, single point]",
COC(=O)C1C(O)=CC(=O)CC1C (centres undefined),"inconclusive [activator, single point]",
NC(=O)CC(NC(=O)Cc1ccc(Br)cc1)c1ccc(N2CCC(Br)CC2)c([N+](=O)[O-])c1 (centres undefined),"inconclusive [activator, partial curve, poor fit]",
CN(C)c1ccc(P(=O)(CC(=O)N/N=C/c2ccc(C#N)cc2)OCCCl)cc1 (centres undefined),"inconclusive [activator, full curve, poor fit]",
CCOC(=O)c1[nH]c(C)c(C(=O)/C=C/c2ccc(C(=O)O)cc2)c1C,"inconclusive [activator, single point]",
COc1ccc2c(c1)C(=O)C(=O)N2CCS(=O)(=O)c1ccccc1,"inconclusive [activator, single point]",
COc1ccc2oc(=O)c(/C(C)=N/Nc3ccccc3)cc2c1,"inconclusive [activator, single point]",
COC(=O)c1cc2ccsc2n1Cc1ccccc1F,"inconclusive [activator, single point]",
COc1ccc(C2=NN(CCC(=O)NCC3CCCO3)C(=O)CC2)cc1 (centres undefined),,inactive: -1.72%
CC(=O)c1ccc(NC(=O)c2ccc3nc(-c4ccco4)c(-c4ccco4)nc3c2)cc1,"inconclusive [activator, single point]",
Cc1ccc(NC(=O)CN(C)C(=O)c2cc(-c3cccs3)nn2-c2ccccc2)cc1,"inconclusive [activator, partial curve, poor fit]",
CN1CCN(S(=O)(=O)c2ccc(N3CCN(c4ccccc4Cl)CC3)nc2)CC1,"inconclusive [activator, full curve, poor fit]",
O=C(NC(=S)N1CCN(c2ccc(O)cc2)CC1)c1ccco1,"inconclusive [activator, single point]",
COc1ccccc1C(=O)NNC(=O)c1ccccc1F,"inconclusive [activator, single point]",
Cc1nn(-c2ccccc2)c(N2CCCC2)c1/C=N/NC(=O)c1cc(-c2ccccc2)nc2ccccc12,"inconclusive [activator, partial curve, poor fit]",
Cc1cc(/C=C(\C#N)C(N)=O)c(C)n1-c1ccc(N2CCOCC2)c([N+](=O)[O-])c1,"inconclusive [activator, single point]",
